# Among all 310,000 compounds or so, about 14,000 (4.5%) showed an effect of 50% or more. Effects have a minus sign here. The list shows a part of the results.
# Target: human ether-à-go-go-related gene (hERG) potassium channel (human, UniProt Q12809)
# Assay: primary screen, population patch clamp on CHO cells stably expressing hERG
# 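Further: peak tail current of the secondary pulse compared with the same well before compound.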
# Chain of human ether-à-go-go-related gene (hERG) potassium channel (Q12809 whole entry, looked up): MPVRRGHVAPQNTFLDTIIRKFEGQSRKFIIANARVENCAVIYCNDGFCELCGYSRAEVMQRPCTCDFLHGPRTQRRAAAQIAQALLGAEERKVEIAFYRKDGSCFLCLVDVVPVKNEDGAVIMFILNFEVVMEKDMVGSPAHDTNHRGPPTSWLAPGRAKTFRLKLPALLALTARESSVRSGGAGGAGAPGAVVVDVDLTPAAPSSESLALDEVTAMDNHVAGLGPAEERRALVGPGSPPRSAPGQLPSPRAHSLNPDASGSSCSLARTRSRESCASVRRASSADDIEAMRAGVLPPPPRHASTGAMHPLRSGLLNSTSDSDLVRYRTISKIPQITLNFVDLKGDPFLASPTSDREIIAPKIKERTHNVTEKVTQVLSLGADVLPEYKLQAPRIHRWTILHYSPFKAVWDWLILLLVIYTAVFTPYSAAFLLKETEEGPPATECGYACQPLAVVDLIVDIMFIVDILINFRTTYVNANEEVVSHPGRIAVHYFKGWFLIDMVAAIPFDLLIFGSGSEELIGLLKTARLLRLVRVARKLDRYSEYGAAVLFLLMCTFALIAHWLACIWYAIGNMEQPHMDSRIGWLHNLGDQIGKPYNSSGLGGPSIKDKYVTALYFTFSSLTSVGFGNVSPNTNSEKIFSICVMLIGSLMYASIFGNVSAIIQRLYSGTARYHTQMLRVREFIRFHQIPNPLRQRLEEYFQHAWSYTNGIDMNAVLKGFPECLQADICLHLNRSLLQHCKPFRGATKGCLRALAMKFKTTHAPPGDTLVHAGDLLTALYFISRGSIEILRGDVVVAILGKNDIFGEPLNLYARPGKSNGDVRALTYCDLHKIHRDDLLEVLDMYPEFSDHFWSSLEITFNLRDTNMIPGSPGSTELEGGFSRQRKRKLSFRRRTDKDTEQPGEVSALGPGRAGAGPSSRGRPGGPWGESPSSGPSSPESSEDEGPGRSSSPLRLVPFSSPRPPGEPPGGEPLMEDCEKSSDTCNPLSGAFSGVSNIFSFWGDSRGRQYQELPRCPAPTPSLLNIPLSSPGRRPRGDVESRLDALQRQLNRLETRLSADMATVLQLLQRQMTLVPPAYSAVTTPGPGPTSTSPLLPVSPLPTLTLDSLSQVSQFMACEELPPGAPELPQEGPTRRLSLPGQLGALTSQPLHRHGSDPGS
row,SMILES,"hERG current change (%, negative = inhibition) at 10uM [%]"
1,C(/C=C/c1ccco1)=N/N1CCN(c2ccccc2)CC1,5.24
2,Cc1nc2sc(C(c3cccc(F)c3)N3CCCCC3)c(O)n2n1 (stereo not shown),4.79
3,Nc1c(C(=O)[O-])sc2nc3c(cc12)CCCC3,9.96
4,COc1ccccc1NC(=O)C/C(C)=N/NC(=O)C12CC3CC(CC(C3)C1)C2,7.98
5,Cc1cccc(C)c1OCCSc1n[nH]c(N)n1,8.88
6,C=CCN1C(=O)/C(=c2\sc3nc(=O)c(Cc4ccccc4Cl)nn3c2=O)c2ccccc21,16.7
7,O=C(N/C(=C\c1ccccc1)C(=O)N1CCCCC1)c1ccco1,20
8,COc1ccc(/C=C/C(=O)OCC(=O)N2CCCCCC2)c(OC)c1,-16.3
9,O=C(NCc1ccccc1)c1ccc2c(=O)n(CCCN3CCCC3=O)c(=S)[nH]c2c1,-2.52
10,OC(COc1ccc(Br)cc1)CN1CCN(c2ccccc2)CC1 (stereo not shown),-21.2
11,CC(Oc1ccc(Br)cc1)C(=O)N1CCN(c2ccccn2)CC1 (stereo not shown),-29.4
12,COc1ccc(CCNCC(=O)Nc2ccc(OC(F)F)cc2)cc1,-75.8
13,O=C(O)C1=C[C@H](c2cccs2)C[C@H](OCc2ccc(CO)cc2)O1,-0.491
14,CCOC(=O)CNC(=O)N1CCC(CCOc2ccccc2)(C(=O)OCC)CC1,1.83
15,COc1ccc(C(C)=O)cc1COC(=O)c1cnc(Cl)c(Cl)c1,3.03
16,COc1ccc(C2/C=C\CN(Cc3ccncc3)CC(=O)N2Cc2ccc(F)cc2)cc1 (stereo not shown),-45.4
17,O=C(Nc1ccc(S(=O)(=O)N2CCCCC2)cc1)c1ccco1,-10.7
18,Cn1c(SCC(=O)Nc2nc3c(s2)CCCC3)nnc1-c1ccccc1,-16.4
19,CCN1CCN(c2nc(N)c([N+](=O)[O-])c(Nc3cccc(C)c3)n2)CC1,-45
20,Cc1ccc(C(=O)N2CCC(C)CC2)cc1NC1=NC2CS(=O)(=O)CC2S1 (stereo not shown),0.213
21,COc1ccc2cc([C@H](C)C(=O)[O-])ccc2c1.[Na+],10.3
22,O=[N+]([O-])c1ccc(OCC(O)CN(C2CCCCC2)C2CCCCC2)cc1 (stereo not shown),-75.8

row,SMILES,"hERG current change (%, negative = inhibition) at 10uM [%]"
1,O=[N+]([O-])c1ccc(CSc2ncnc3ccccc23)cc1,-31.8
2,CCOC(=O)c1nn(-c2ccc(C)cc2)c(C)c1C(C)=O,4.57
3,Cc1ccc(C(CC(=O)NCc2ccco2)c2ccc(OC(C)C)cc2)cc1 (stereo not shown),-23.6
4,Cc1ccc(CN2CC(C(=O)NC(c3nc4ccccc4[nH]3)C(C)C)CC2=O)cc1 (stereo not shown),-6.03
5,OCC1OC(Oc2cccc3ccccc23)C(O)C(O)C1O (stereo not shown),12.3
6,CCCn1c(=O)c2[nH]c(C3CCCC3)nc2n(CCC)c1=O,9.9
7,COC(=O)CSc1nc(SCc2ccccc2Cl)nc2c1CCCC2,2.88
8,O=C(Nc1ccccn1)Nc1ccccc1[N+](=O)[O-],11.6
9,O=C(Nc1ccc(F)c([N+](=O)[O-])c1)C1CCCO1 (stereo not shown),10.5
10,CCOC(=O)C1(CCc2ccccc2)CCN(Cc2ccc3c(c2)OCCO3)CC1,-84.4
11,COc1ccc(-c2csc(N3CCN(C(=O)c4ccco4)CC3)n2)cc1,-8.87
12,Cc1cccc(NC(=S)NNC(=O)c2ccc3c(c2)OCO3)c1,15.3
13,Cc1c(Cl)c([N+](=O)[O-])nn1Cc1ccc(C(=O)N/N=C\c2cc(Cl)ccc2O)o1,14.9
14,O=C(CCCCCCCC(=O)NCC1CCCO1)NCC1CCCO1 (stereo not shown),0.822
15,CN(C)c1ccc(S(=O)(=O)N(C)C)cc1[N+](=O)[O-],19.3
16,CC(=O)Nc1ccc(N=Cc2ccc[nH]2)cc1,-4.47
17,Cc1ccc(-c2cc(C(=O)Nc3ccccc3C(N)=O)c3ccccc3n2)o1,-8.43
18,CCOc1ccc(OCc2ccc(C(=O)N3N=C(C(F)F)CC3(O)C(F)F)o2)cc1 (stereo not shown),16.5
19,C=CCC1=C/C(=C\c2c(N)n3nc(CC(=O)N4CCOCC4)sc3nc2=O)C=C(OC)C1=O,6.1
20,CC(CNC(=O)c1ccc(Br)o1)NC(=O)c1ccc(Br)o1 (stereo not shown),-0.676
21,CCOC(=O)N1CCN(CC(=O)Nc2cc(OCC)ccc2OCC)CC1.Cl,-68.1
